B1: LINE1-full (parent)
chain: UACGUAGGUGGUUUUCCCCUGAUAGUGCUAAGGGGGCCUGGAAGUUUGGACUGGGCAGAGCUCAACACAGCGUGGCAAAGUGGCUGUGGCUAGACUGCCUCUCUGGAUUCCUCGUCACUCAGCAGGGCAUCUCUGAGAGAAAUGCC

Read counts are not given, so values of variants with three or more changes are uncertain.

The variants in this data set derive from B1. As to the kind of experiment: self-cleavage, relative activity (ratio to wild type); higher = more cleavage; in vitro, sequencing; the parent is a self-cleaving ribozyme.
Consider C68U A77G A107U A117G A124U, for which the self-cleavage was found to be 0.38.

As for A77G A78G C123U, the self-cleavage worked out at 2.3.

Take A77U A129G A141C: the self-cleavage is 1.72.

A77U A129G A141G: the self-cleavage is 2.63.

As to C71U U85C U115A, the self-cleavage was 0.05.

On to U73A A129G A140U, for which the self-cleavage is 2.23.

G74A A121G U134C: the self-cleavage stood at 1.15.

Turning to U73A U87C U96A, the self-cleavage is 0.09.

As for U73C G82U A107G, the self-cleavage was 0.

Turning to A67U U96A C101U, the self-cleavage came to 0.04.

In the case of A67G A77G A94G C113U C131G A138U, the self-cleavage stood at 0.

Consider C71U A79U U112C A140G, for which the self-cleavage was 0.16.

In the case of A69U U73C C76U A121U A138G, the self-cleavage came to 0.2.

Turning to A69G U102A U108C, the self-cleavage is 0.38.

On to G70U U85C A129G U130C, for which the self-cleavage was determined as 0.

Take A77G A78G A121U: the self-cleavage stood at 1.15.

With U73A G106A U115C A121G, the self-cleavage stood at 1.84.

For the variant A69U U102A C116U, the self-cleavage amounted to 0.05.

On to U73C U115C U143A, for which the self-cleavage came out at 0.71.

Consider G72A U91C A92U A107U, for which the self-cleavage was determined as 0.33.

In the case of G75A U108C A136G, the self-cleavage was 1.22.

Turning to A67U A69G U100C, the self-cleavage came out at 0.09.

Take A69U A78G A129G U130C: the self-cleavage turned out to be 0.

C68U A94G U102C U115C A136G: the self-cleavage came out at 0.22.

For U73C U102C U109C G114A, the self-cleavage turned out to be 1.62.

Take A69U U112C U132C: the self-cleavage stood at 0.04.

In the case of U73G A121G G135U, the self-cleavage was 1.93.

For A77U U119C A141G, the self-cleavage was determined as 2.4.

In the case of A69G U96C C113U, the self-cleavage was determined as 0.

In the case of G74A A107G U112C, the self-cleavage came out at 1.99.

In the case of A78G A92G U132C, the self-cleavage was determined as 0.

Turning to U73A U85C A121G, the self-cleavage was 0.06.

For A69G U108C A129C A140G, the self-cleavage is 0.

With U73A U102C C118U A121G G127U, the self-cleavage amounted to 1.86.

As for A69G G86A A129G A142G, the self-cleavage is 0.06.

As to A67G A79G U130C, the self-cleavage was found to be 0.42.

Turning to A67U U96C C111G, the self-cleavage was 0.07.

As for G75A U104C A136U, the self-cleavage turned out to be 1.6.

For A69G U109A G135U, the self-cleavage was 0.24.

As for A69G U81C C103A, the self-cleavage worked out at 0.

For the variant U73A A78G U109C U132C A138G, the self-cleavage is 0.2.

Turning to U73C U87C G93A A142G, the self-cleavage worked out at 0.1.

As to A67U A78U U85C, the self-cleavage stood at 0.03.

A69U U81A U104A: the self-cleavage is 0.02.

Turning to A67G G80A U81A A129U, the self-cleavage came out at 0.99.

For the variant A77U U108A G127C, the self-cleavage was 1.27.

For A77G U96A U104A, the self-cleavage is 0.12.

On to A77U U85C A107C A124G, for which the self-cleavage amounted to 0.

As to A69U A77U G122A A142G U143C, the self-cleavage came to 0.05.

For the variant A67G C90U U130C, the self-cleavage amounted to 0.02.

For the variant A77G A78U U109A A140G, the self-cleavage came to 2.1.

For A67U A107G U112C, the self-cleavage worked out at 0.1.

In the case of A69G U104A U130C, the self-cleavage amounted to 0.17.

A77G U87A G122A A140G A141G: the self-cleavage is 0.11.

For the variant A67G A79U U104C U132A G144A, the self-cleavage was 0.42.

In the case of A67U A79G U132C, the self-cleavage came to 0.14.

A78G A136G U143C: the self-cleavage was 1.47.

For A77G A117U A141G, the self-cleavage came to 2.59.

As for A69G U73G C95U, the self-cleavage is 0.04.

Turning to A77G U108A A136G, the self-cleavage worked out at 0.92.

As for G72A U81A U108C C133U, the self-cleavage was found to be 2.47.

On to A69G U81A C118A A142G, for which the self-cleavage stood at 0.32.

For U73G U104A U130C, the self-cleavage turned out to be 0.98.

Consider A69G U115C A129G, for which the self-cleavage was 0.84.

Take C76U U91C C103A A117G: the self-cleavage is 0.71.

For A67U C98U A142G, the self-cleavage is 0.05.

For A69U U100C U115C U134C U143A, the self-cleavage was 0.51.

In the case of A77C U100C U119C, the self-cleavage is 0.92.

A69G C90U A107G A121G A124G: the self-cleavage turned out to be 0.

As for U73A U100G A136C, the self-cleavage came to 1.31.

For the variant G72A A77U A94G, the self-cleavage was determined as 0.18.

Turning to A77G G93U U102C, the self-cleavage was 0.06.

In the case of A78G C111A A140G, the self-cleavage amounted to 0.75.

On to A77G A92G A117G, for which the self-cleavage was determined as 0.

For the variant G72A U119A U143C, the self-cleavage was determined as 1.93.

As to A77G A124U A129G, the self-cleavage turned out to be 0.88.

Regarding A77C U85C G106A, the self-cleavage came to 0.17.

As to U73A U87A G97A, the self-cleavage was found to be 0.04.

In the case of A67G A94G A141G, the self-cleavage came out at 0.48.

As for A78C G83A U87A, the self-cleavage came to 0.08.

With A69G G80U U87C, the self-cleavage was found to be 0.

For the variant U73A A78G A79U, the self-cleavage amounted to 0.24.

Turning to U73C U87A A121G U134A, the self-cleavage came out at 0.06.

Turning to C76U A77U U112A, the self-cleavage was 2.14.

Regarding U73A U85C G88A, the self-cleavage is 0.04.

Turning to C68U U104A U115C A129U, the self-cleavage stood at 0.1.

For A69G A79G A142G, the self-cleavage is 0.

As for A77G U104A U143G, the self-cleavage came to 1.72.

Take A69G A107G A141U: the self-cleavage amounted to 0.84.

As for A69G U130C A141G, the self-cleavage was 2.63.

Take A67U C98A U104A U108C: the self-cleavage was determined as 0.03.

Take A77U A124G A129G: the self-cleavage came out at 1.32.

Turning to U73A A79G U102A, the self-cleavage was found to be 1.08.

As for U73A U100C C113U, the self-cleavage is 2.14.

Take A77G A79U U96A U119A A140G: the self-cleavage was 0.04.

With G72A U73A A140G, the self-cleavage came out at 2.65.

For A77U U104G G106U, the self-cleavage was determined as 1.04.

In the case of A67G U73C U112A, the self-cleavage stood at 0.81.

In the case of A77G U102C U134C, the self-cleavage was 2.69.

A77U A142G C146A: the self-cleavage is 1.05.

Consider U73A A92G C116U A121U A142G, for which the self-cleavage was determined as 0.08.

Turning to G74U A136G A141G, the self-cleavage stood at 1.5.

As to U73G U87C G106U A142G, the self-cleavage was determined as 0.

For G72A G74A U115C A140G U143C, the self-cleavage came to 1.11.

With A67G G114A U115A, the self-cleavage was 0.36.

A69G A121G G127A: the self-cleavage was 0.76.

Turning to A67U U100C U108C, the self-cleavage came to 0.13.

For A67U A94G U115C C133A A141G, the self-cleavage came to 0.

In the case of G74A U91C U112C A141U, the self-cleavage turned out to be 0.31.

For the variant C71G A77U G89C U91C U112A, the self-cleavage turned out to be 0.05.

Take A77U G80A U115C: the self-cleavage was 2.54.

Consider C71A U87C A124G, for which the self-cleavage amounted to 0.01.

For the variant U73C A79G C131U, the self-cleavage is 1.99.

Take A69G A78U A141U: the self-cleavage came out at 0.9.

For the variant U73G U132C A141G, the self-cleavage was found to be 2.3.

Regarding A67U G86A A92G U143A, the self-cleavage turned out to be 0.05.

For the variant A67G U73A U87A, the self-cleavage stood at 0.06.

Consider A77U A79G U112A, for which the self-cleavage was 1.62.

A77G U81C U87A A129G: the self-cleavage came out at 0.

Take A69U U85C U91C: the self-cleavage was 0.

As to C68U A129G A141G, the self-cleavage amounted to 0.12.

Take U73C C99U A124G: the self-cleavage was 0.9.

For the variant A67U U73C U85C U132A U134A, the self-cleavage was 0.

For the variant G72A G82A U115C, the self-cleavage turned out to be 1.83.

U73A A124G A129U: the self-cleavage is 1.41.

As to U73A C111U A140G A141U, the self-cleavage came to 1.16.

Regarding G74A A78G A121U, the self-cleavage turned out to be 0.35.

For the variant A69C U109C A121G, the self-cleavage was 0.27.

Take A77U U109C C128U: the self-cleavage amounted to 1.34.

As to C68U U73C G125U, the self-cleavage was 0.02.

U73C U81C U115A: the self-cleavage was 1.15.

U73C U87A A121G: the self-cleavage stood at 0.18.

On to A67U U102C A140G, for which the self-cleavage came out at 0.42.

For A69G A142G U143C, the self-cleavage stood at 0.

For A69G C118A U130C, the self-cleavage is 0.5.

For A77G A94G A129U, the self-cleavage worked out at 0.22.

On to G72A U108A C131U A142G, for which the self-cleavage stood at 1.99.

Consider U73A U109A A138G U143C, for which the self-cleavage amounted to 1.72.

As for A67G U108A U115C, the self-cleavage was 0.37.

As to A69U U81C U115C, the self-cleavage was 0.05.

Turning to C71A A107G A142G, the self-cleavage was found to be 0.28.

For the variant G70A A117U A142G, the self-cleavage stood at 0.17.

Consider A67U U112C A124U, for which the self-cleavage came out at 0.13.

In the case of A69U A124C U134A, the self-cleavage came out at 0.07.

Turning to A69U U100A U115C, the self-cleavage worked out at 0.

Consider A67C U112A A142G, for which the self-cleavage is 0.12.

With G74U A129U A138G, the self-cleavage came to 1.1.

Take A77G U87C U134C: the self-cleavage came out at 0.

With U73A U87A A117U, the self-cleavage was 0.05.

Consider U73A A92G U100A A138G, for which the self-cleavage is 0.1.

In the case of A67G U130C G144A, the self-cleavage is 0.77.

G74A U81G U119C: the self-cleavage stood at 1.21.

On to C68U A107G U115C, for which the self-cleavage stood at 0.04.

For the variant U73A A136G U143C, the self-cleavage was determined as 1.79.

With A69G U73A A79G U96C, the self-cleavage was 0.

As for A78G A138U A141G, the self-cleavage is 1.71.

With A78C A79G G114U, the self-cleavage amounted to 1.91.

Regarding A67U U85C U96C, the self-cleavage came to 0.

For the variant U73C C101U A142G, the self-cleavage is 1.65.

Regarding A77U G114U U143C, the self-cleavage worked out at 1.04.

A77G G127A A140G: the self-cleavage was 1.58.

Take A67U U109C A129G: the self-cleavage is 0.21.

For A69U C71U U102C C131U, the self-cleavage amounted to 0.05.

In the case of A69G C90A A117G, the self-cleavage was found to be 0.06.

As to C71U U96C U102C, the self-cleavage was 0.52.

For A77G A92G C99U U112C, the self-cleavage was determined as 0.

Consider A67G U132C C146U, for which the self-cleavage came to 0.8.

The record behind these values is the RNAGym collection of RNA variant scans (doi:10.7554/elife.90254).
